In the supplement of paper PMC10126150:
Sequences with one replicate were seen in a single cluster, so their values are uncertain.

Test system: ATP
Assay: switch fluorescence ratio, 500 uM ATP over buffer (Cy3 cluster intensity, sum of 5 cycles each) (fold (ratio)); higher = stronger signal-on switching upon ATP binding; sequences stand for … in TCGTCGGCAGCGTCAGATGTGTATAAGAGACAGTTTTTTTTTTTTTTTTTTTTTTTTT…TC
Conditions: aptamer strand: ATP DNA aptamer (quencher-CACCTGGGGGAGTATTGCGGAGGAAGG + anchor), 100 nM annealed; ATP concentration: 500 uM; one replicate
How it was run: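 Per cluster, summed Cy3 intensity from the target cycles was divided by that from the buffer cycles to give the fluorescence ratio, then averaged per switch-domain sequence. Clusters outside 100-1000 RFU were excluded. The Cy3-labelled switching-strand clusters, on a modified Illumina MiSeq flow-cell, were annealed to 100 nM quencher-labelled ATP aptamer and imaged in selection buffer, then after 15 min with 500 uM ATP at 22 °C, for five cycles with NaOH stripping and re-annealing between them.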
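Note: ATP exposure 15 min at 22 °C before imaging.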

Sequence	switch fluorescence ratio
GAGATTTGTG	0.989
CCCACTATTG	1.01
GCCATGTTTG	0.954
AGGCGTATGG	0.976
AAGGCCTCGT	0.97
TCGTGGGTTT	0.999
CGGCGGGCG	0.926
AGAGGCTGCG	0.964
TAAGACGTCT	0.972
GCCTCAAGAT	1.42
AACGTGACAT	1.22
CCTTGATCAC	1.09
CAGACGGGTG	1.02
TAATGAAAAT	1.02
ATATCTCAGC	1.03
TTTTTCGTCG	0.934
AAATCTGACT	1.23
AACTATATTG	1.02
GGGAGCGTAG	0.971
CCGCATATTT	2.19
TCAGGAACCG	0.981
TGGGTGCCTT	0.943
TTGTTCCATT	1.05

Sequence	switch fluorescence ratio
CGTGTGCTAT	1.02
TATCTATTGG	0.962
ATGCGCGTTC	0.982
GGCCAGTGTC	1.04
CATCATAAGT	0.992
TATAATTATA	1.01
CAATAAACAG	1.01
ATGACTTCAG	0.965
TGAAGTTGTT	1.02
CGGAGTCCAT	1.08
ATCACAGTGC	1.14
CGGTCAAA	1.02
CAATGAAAAG	1.01
CCGTGGCGTT	1.06
ATTCTGTGAA	1.02
TTACAGAAGG	1.01
TGCAGCAGAG	1.06
GCCAAAGCGA	1.2
AAGACTACAG	0.991
ACGTCTTACG	0.962
CGCCGCGGCA	0.968
GTGCGTCTAT	1.01
TTCGCTTAAT	1.1

Sequence	switch fluorescence ratio
AGGCATAGAC	1.1
GACCGACAGA	1.06
GATTTAGTTT	0.973
GTATTCCCGG	1.46
CAGCGATCGG	1.03
GACCTGTTCT	0.995
GGCTAAAAAA	1.03
GAGGGACCGA	1.03
ACGATTCTTG	1.02
AATCCGATAG	1.1
AACCCTCAGG	1.3
TTTGTTAGGA	0.983
GACTCAACGT	1.16
ACTATTGTCT	0.966
CCACGGTCTG	1.09
ATTTCGCCGT	1.04
CAACTGTAGG	1.01
TTGTTGGCCT	1.04
GCTTGGGCAT	1.01
GCGGTATGGC	1
TGGTCTGCTG	0.987
GCATTTATGT	0.995
GACGTGGGG	0.969

Sequence	switch fluorescence ratio
GATAAATGCC	1.01
TTCGACGGTG	1.02
ACTAAGATTA	1.01
AATAGTAAAA	0.99
CGAATTGTA	1.04
TGTAGTAGGA	0.981
AAATTTTAAA	1.02
TTTGTTCGAG	0.969
GATACATTTA	1.02
TCGTCCGGTT	1.01
TTTCTGTGGT	0.982
TCGGGCATTT	1.82
AGTATTGTTG	0.974
TGTCGGTATC	0.984
TATAATCAT	0.985
AATTGTTGGA	0.993
TGTGGCCCGC	0.982
TATATAAAC	1.02
TCCGGAACAG	1.29
TTGCTGCGGA	1.02
CGCGTCAGAG	1.02
CAACACGTAA	1.32
CGTTGCCGTA	0.992

Sequence	switch fluorescence ratio
TCTAATCGAT	0.979
ATGTGCTCCT	1.05
GCGGTAGTGT	0.944
AGGTATTAGA	1.03
TGTTTGCGGG	1.04
CGGCGTTTCT	0.996
TTATGTAGCG	0.973
CGCCCGTTAT	1.05
CCCTCAATTG	1.07
GACCTTAAAA	1.03
TTAGATTAGC	1.02
GTTCTAAGAG	0.995
TATAAGAACA	1.01
GATCTGGGGA	1.03
TAAATTTCCA	0.982
ACGATACTT	1.53
CTTGAAAGA	1
AAGATTTGGC	1.14
CGCGAGATCA	1.03
TATCGATTG	1.03
GGGATCTAAG	1
AATCTCTGGA	0.998
CGCCCACTC	1.34

Sequence	switch fluorescence ratio
GCGGTAATTA	1.01
GCGTCACCTT	1.03
GGCAGATTGG	1.01
CTTAAGCCAG	1
AAAAACTTAT	1.04
GGCTAGGATG	0.97
TCAAGAACTT	1.02
GGGACCGGCG	1.04
TTAGTTACC	1.14
CTGCGCATGA	1.91
AATTCATCTA	1.02
TTGTCCGGAC	1.01
GGGGGTCCCC	1.03
ACCACCTTCT	1.5
TGCTTGGGTG	1.01
ATTCGCAGGC	2.37
GGCCGGCCCG	0.984
AGGATACTGT	1.01
TTCGAGTCAG	0.992
CGCTAGAGGA	1.06
GAGGCCGTT	1.03
CAAATCAACT	1.03
TGATGGAGG	0.985

Sequence	switch fluorescence ratio
CTGTAACCGA	1.15
CTATAAGTTC	0.98
AAGTTATGCA	0.989
CCCGGAGGAT	0.996
CCTGCCCGCG	1.69
ATGGTAGCCC	0.999
TTAGGGTCA	1
CGACCATG	0.96
TTTAGCGTAT	1.01
AATGGGCAGG	1.07
GGTTTAGTCG	0.961
AATTGATACA	0.997
CGTGGTGTAG	0.997
AGTGAAGCTA	0.994
TTAGTACGGC	1.03
GATCCCGGGG	0.933
TTAGTTGTG	0.986
TGGGAACATA	1.17
TGATAACGGT	1.02
